# According to PubChem BioAssay AID1508624 (National Center for Advancing Translational Sciences (NCATS), 2021):
# Among all 48,000 compounds or so, about 120 (0.25%) were called active. Another 4% or so got no clear call; they are omitted. Calls follow the shape of the dose curve; as a rule, active = well fitted activation curve with a large enough effect; inconclusive = small, poorly fitted or top-dose-only effect, or another doubt; inactive = no such curve, though single readings can be large or run the other way. Some of the results follow.
# Assay: Primary qHTS for Identification of Small Molecule Activators of Huntingtin-Antisense Promoter Activity; also: nearly all actives have a fitted effect of over 55% in size
# Conditions: HEK293 HTT-AS promoter firefly luciferase reporter, 24 h; series mostly up to 57.5 µM; activity change, positive = activation: at the top concentration
# How it was run: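 Firefly luciferase readout (Dual-Glo, 10 min RT) after 24 h, 37 °C compound exposure (final up to 57.5 uM) of HEK293 reporter cells cultured 24 h beforehand; PTC124 at 50 uM final as control inhibitor; activity scaled vehicle 0%, zero RLU -100%.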
# Potency is read from the fitted curve at half-maximal effect.
SMILES,"activity change, positive = activation",Potency
Cc1cccc(C(=O)Nc2cccc(OCc3cc(=O)n4cc(C)sc4n3)c2)c1,inactive: -4.55%,
Cc1ccc(C(C)C)c(OCC(=O)NCC2(N3CCOCC3)CCCCC2)c1,inactive: -37.9%,
Cc1ccc(-n2cc3c(c2-c2ccccc2Br)c(=O)n(C)c(=O)n3C)cc1N,inactive: -12.1%,
Cc1ccc(CNS(=O)(=O)c2ccc(-c3cnc(C4CC4)o3)cc2)cc1,inactive: -24.3%,
CCc1cccc(NC(=O)Cn2c(=O)c(C(F)(F)F)nc3ccccc32)c1,inactive: 9.18%,
NC(=O)c1cccc(N)c1,inactive: -6.39%,
Cc1cccc(CSc2nc3cc(C(=O)NC4CCCC4)ccc3c(=O)n2Cc2ccccc2)c1,inactive: -4.96%,
Cc1cc(C)c2c(=O)cc(C(=O)Nc3nc4ccc(F)cc4s3)oc2c1,inactive: 9.12%,
CCCN(CCC)CC(O)Cn1cc(/C=C/C(=O)c2ccc(OC)cc2)c2ccccc21 (configuration not stated),inactive: -36%,
Cc1ccc(C(=O)Oc2ccc(C(O)CNC(C)(C)C)cc2OC(=O)c2ccc(C)cc2)cc1 (configuration not stated),inactive: -10.4%,
CCC(CC)C(=O)Nc1c(C(=O)N2CCN(c3ccccc3)CC2)oc2ccccc12,inactive: -34.3%,
COC(=O)c1ccc(NC(=O)CCc2c(C)nn(-c3ccc(N4CCOCC4)nn3)c2C)cc1,inactive: 8.16%,
O=C(Nc1ccc(F)cc1)c1ccc(Cn2nc(N3CCN(c4ccccc4)CC3)ccc2=O)o1,inactive: -42%,
COc1ccc(CCNc2nc(-c3ccc(Cl)cc3)cc(C(F)(F)F)n2)cc1OC,inactive: -38.2%,
CCOC(=O)c1c(C)[nH]c(C)c1S(=O)(=O)N1CCC(C(=O)N2CCN(c3cccc(C)c3C)CC2)CC1,inactive: -26.5%,
COc1ccccc1-c1nc2c(c(SCc3ccc(F)cc3Cl)n1)Cc1c(CO)cnc(C)c1O2,inactive: -9.41%,
CCc1ccc(NC(=O)c2sc3nc4c(cc3c2N)CN(CC)CC4)cc1,inactive: -13.2%,
COc1ccc(Cl)cc1NC(=O)Cc1coc2c(C)c(C)ccc12,inactive: -28%,
N=c1n(CCO)c2ccccc2n1Cc1ccccc1F,inactive: -13.3%,
O=C(CSc1c2c(nc3ccc(Cl)cc13)CCCC2)NCc1ccccc1Cl,inactive: -17.5%,
COc1ccc(CCNC(=O)c2cc(=O)c3cc(C)cc(C)c3o2)cc1OC,"inactive: 9.1% [at 11.5 µM, percent change from vehicle, -100% = no light]",
O=C(OCc1ccco1)c1ccc2c(c1)N(Cc1cccc(F)c1)C(=O)c1ccccc1S2,inactive: -35.4%,
COc1ccc(Br)c(C(=O)Nc2cc3c(cc2N2CCCC2)n(C)c(=O)c(=O)n3C)c1,inactive: -5.75%,

SMILES,"activity change, positive = activation",Potency
Cc1ccc(-c2cc(C(=O)OCC(=O)c3ccccc3)c3cccc(Cl)c3n2)cc1,inactive: 24.9%,
CCC(Sc1nc2ccccc2c2nc(CCn3c(C)nc4ccccc43)nn12)C(=O)Nc1ccc(F)cc1 (configuration not stated),inactive: -6.83%,
CCCCNC(=O)c1cccc(-n2cnc3cccnc32)c1C,inactive: 2.47%,
CC1CCCCN1C(=O)c1ccc2c(c1)N(Cc1cccc(Cl)c1)C(=O)c1ccccc1S2=O (configuration not stated),inactive: -28.6%,
Cc1cc(N(C)Cc2ccccc2)n2nc(-c3ccc(C(C)(C)C)cc3)nc2n1,inactive: -13.8%,
Cc1ccc(-n2nc(C(C)(C)C)cc2NC(=O)Nc2ccc(OCCN3CCOCC3)c3ccccc23)cc1,inactive,
COc1ccc(OCCn2nnc3sc4c(c3c2=O)CCC(C(C)(C)C)C4)cc1 (configuration not stated),inactive: -3.03%,
CC1CCN(c2nc3c(-c4cccc(Br)c4)nnn3c3ccccc23)CC1,inactive: 1.84%,
CCc1ccc(-n2nc3cc(C)c(NC(=O)c4ccccc4C)cc3n2)cc1,inactive: 9.48%,
CCOc1ccc(-c2c(C)nn3c(C)c(C(=O)NCc4ccc(Cl)cc4)cnc23)cc1OCC,inactive: -22.4%,
CCC(NC(=O)Nc1cc(Cl)ccc1OC)c1c(-n2cccc2)sc2c1CCN(C)C2 (configuration not stated),inactive: -14%,
CCCCCn1c(=O)[nH]c2cc(C(=O)NCCN(C)CCCC)ccc2c1=O,inactive: -8.81%,
COc1cc(NC(=O)c2cnn(-c3cccc(F)c3)c2C2CCNCC2)cc(OC)c1OC,inactive: -0.101%,
CCc1nnc(NC(=O)CSCc2cc(=O)c3ccc(C)cc3[nH]2)s1,inactive: -18.2%,
Cc1cc(O)c(C(c2ccccc2Cl)N2CCN(c3ccccc3)CC2)c(=O)n1Cc1ccco1 (configuration not stated),inactive: 14.3%,
Cc1ccc(C)c(NC(=O)CCCn2nc(C)c3sc4ccccc4c3c2=O)c1,inactive: -0.0111%,
COc1cc(CN(C(=O)COc2ccc(C)c(C)c2)c2ccccn2)cc(OC)c1OC,inactive: -30.4%,
COc1ccc(NC(=O)CN(Cc2ccccc2)S(=O)(=O)c2ccc3nc(C)sc3c2)cc1,inactive: -21.3%,
CCCN(CCC)CCNC(=O)c1cc2c(-c3ccccc3F)nn(C)c2s1,inactive: -16.3%,
CNC(=O)c1ccc(C)c(-n2c(C)cc(OCc3ccc(F)cc3F)c(Br)c2=O)c1,inactive: 1.79%,
O=C(CSc1oc(-c2ccco2)nc1S(=O)(=O)c1ccc(Cl)cc1)c1ccc(Cl)cc1,inactive: -16.9%,
Cc1ccc2oc(=O)c3cc(C(=O)N(Cc4ccccc4)C(C)C)sc3c2c1,inactive: -15.9%,
Cc1ccc(CN2c3ccccc3S(=O)(=O)c3ccccc32)cc1,inactive: -18.1%,

SMILES,"activity change, positive = activation",Potency
COc1ccc(CNC(=O)CC2N=C3c4ccccc4N=C(SCC(=O)Nc4ccc(N(C)C)cc4)N3C2=O)cc1 (configuration not stated),inactive: -30.3%,
Cc1ccc(NC(=O)Cn2c(-c3ccc4c(c3)OCO4)cn(-c3ccccc3)c2=O)cc1,inactive: 26.8%,
Cc1ccc2c(c1)c1c(c(=O)n(Cc3ccccc3)c(=O)n1CC(=O)Nc1ccccc1C)n2C,inactive: -14.8%,
COC1=C2C[C@@H](C)C[C@H](OC)[C@@H](O)[C@@H](C)C=C(C)[C@H](OC(N)=O)[C@@H](OC)C=CC=C(C)C(=O)NC(=CC1=O)C2=O,inactive: -65%,
COc1ccc(-c2c3c(=O)n(C)c(=O)n(C)c3c3c(-c4ccc(C)cc4)nc4ccccc4n23)cc1,"inactive: 8.66% [at 11.5 µM, percent change from vehicle, -100% = no light]",
CCC(C(=O)Nc1cccc(C#N)c1)n1c(=O)c(-c2ccccc2NC(C)=O)nc2ccccc21 (configuration not stated),inactive: -51.7%,
CCN1CCC(N(Cc2cccc(OC)c2)C(=O)Nc2ccc(C)cc2Cl)CC1,inactive: -10.4%,
COC(=O)C1=C(C)NC(C)=C(C(=O)OCCc2ccc(N3CCN(C(c4ccccc4)c4ccccc4)CC3)cc2)C1c1cccc([N+](=O)[O-])c1 (configuration not stated),inactive: -3.37%,
Cc1ccc(CSc2nc(=O)c3c(n2C)NC(=O)CC3c2ccc(OC(C)C)cc2)cc1 (configuration not stated),inactive: -24.9%,
CCCCCNC(=O)C(=O)NCC(c1ccc2c(c1)OCO2)N1CCOCC1 (configuration not stated),inactive: -11.5%,
Cc1ccc(S(=O)(=O)Nc2cc3c(cc2N2CCOCC2)n(C)c(=O)n3C)c(C)c1,inactive: -21.6%,
CCn1cc(C(=O)NCCc2ccccc2)c(=O)c2cc(S(=O)(=O)N(C)C3CCCCC3)ccc21,inactive: -11.1%,
CN(C)C(=O)CNC(=O)Cc1ccccc1,inactive: -19.9%,
CC(=O)c1[nH]c(C)c(C(=O)NCCc2ccc(C)cc2)c1C,inactive: -13.2%,
COc1ccc(-c2noc(-c3ccc(NCc4ccccc4OC)c([N+](=O)[O-])c3)n2)cc1,inactive: -1.25%,
CC(=O)Nc1cccc(C(=O)NCc2ccc3c(c2)CCN3C(C)=O)c1,inactive: -18.1%,
CN(C)CCCNc1oc(/C=C/c2ccc(F)cc2)nc1C#N,inactive: -1.14%,
Cc1ccc(NC(=O)CCCn2c(=O)c3cccn3c3cccnc32)c(Cl)c1,inactive: -4.36%,
O=c1oc2c3c(ccc2c2ccccc12)OCN(Cc1cccc(Cl)c1)C3,inactive: -0.288%,
CCOc1ccccc1N(C)C(=O)C1CCCN(c2ncnc3onc(-c4ccc(F)cc4)c23)C1 (configuration not stated),inactive: -5.36%,
Cc1c(CCNC(=O)Cc2ccccc2)sc2nc(-c3ccc(F)cc3)nn12,inactive: 5.9%,
Cc1cc(C)c(NC(=O)CSc2nccn2Cc2ccco2)c(C)c1,,active: 5.01 µM
O=C(CN1CCN(Cc2ccc(Cl)cc2)C1=O)NCc1ccc(F)cc1,inactive: -25.2%,

SMILES,"activity change, positive = activation",Potency
CCN(CC)CCNC(=O)Cn1ncc2c([nH]c3ccccc32)c1=O,inactive: -8.96%,
CN1C2CCC1CC(OC(=O)C(CO)c1ccccc1)C2 (configuration not stated),inactive: -9.07%,
CCCCN(CC)CCCNC(=O)c1cc2c(-c3ccc(OC)c(OC)c3)nn(C)c2s1,inactive: 15.9%,
CCOc1ccc(-c2cnc(NCc3ccc(OC)cc3OC)n2C)cc1,inactive: -12.2%,
O=C(NCc1ccc(F)cc1)c1ccc(NC(=O)N2CC3CCCN3c3ccccc32)cc1 (configuration not stated),inactive: -46.5%,
COCCNC(=O)C1CCCN(S(=O)(=O)c2ccc3c(ccn3C)c2)C1 (configuration not stated),inactive: -7.91%,
Cn1nc(C(=O)N2CCN(c3ccccc3F)CC2)c2c1-c1ccccc1SC2,inactive: -19.9%,
O=C1c2oc3ccc(F)cc3c(=O)c2C(c2cccc([N+](=O)[O-])c2)N1CCCN1CCOCC1 (configuration not stated),inactive: -10.6%,
Cc1ccc(NC(=O)c2cccn2-c2nnc(N3CCCCC3)s2)cc1Cl,inactive: -15.7%,
Cc1ccc2nc(N(Cc3cccnc3)C(=O)C3COc4ccccc4O3)sc2c1 (configuration not stated),inactive: 29.7%,
Cc1ccc(CSc2cn(CC(=O)N3CCCCC3)c3ccccc23)cc1,inactive: 6.79%,
CCc1ccc(CN(C(=O)c2cc3ccccc3oc2=O)C2CCS(=O)(=O)C2)cc1 (configuration not stated),,active: 3.55 µM
COc1ccc(Cl)cc1NC(=O)CCC(=O)c1ccc(C)cc1,inactive: -21.2%,
CCCCNC(=O)CCCn1c(=O)c2ccccc2n(Cc2ccccc2C)c1=O,inactive: -14.1%,
COc1ccc(CNC(=O)COCc2cc(-c3cccs3)on2)cc1OC,inactive: -12%,
CCc1c(C)sc2c1CCN(Cc1ccc(F)cc1)C2c1ccccc1 (configuration not stated),inactive: -26.1%,
CCC(=O)N1CCc2cc(Br)cc(S(=O)(=O)N3CCN(c4ccccc4)CC3)c21,inactive: -4.92%,
COc1ccc(NC(=O)c2ccco2)cc1NC(=O)COc1cc(C)cc(C)c1,inactive: -31.5%,
COc1ccc(CNC(=O)C2CCCN(S(=O)(=O)c3ccc4c(c3)CCCN4C(C)=O)C2)cc1 (configuration not stated),inactive: -49.9%,
CCc1nnc2c(NCc3ccc(F)cc3)nc3ccccc3n12,inactive: -12.5%,
CCOc1ccc2nc(N3CCCC(C(=O)Nc4ccc(Br)c(C)c4)C3)sc2c1 (configuration not stated),inactive: 10.2%,
COc1ccccc1N1CCN(S(=O)(=O)c2ccc(F)c(C(=O)Nc3ccc(C)c(F)c3)c2)CC1,inactive: -24.1%,
COc1ccc2c(c1)CC(C(=O)N1CCC(C(N)=O)CC1)CO2 (configuration not stated),inactive: -6.99%,
